According to patent US20210162000A1 (INSTITUT DE CARDIOLOGIE DE MONTREAL, published 2021):

Biological target: T1, Glucose-regulated protein 94 (GRP94), endogenous (human, UniProt P14625)
T1 construct: also called gp96; HSP90B1
Assay: co-IP (IP: V5, IB: GRP94) from transfected HEK293 cells, with GRP94 siRNA as specificity control

B1: PCSK[…]Y-V5 (enzyme, not shown: small tags and cut ends)
chain: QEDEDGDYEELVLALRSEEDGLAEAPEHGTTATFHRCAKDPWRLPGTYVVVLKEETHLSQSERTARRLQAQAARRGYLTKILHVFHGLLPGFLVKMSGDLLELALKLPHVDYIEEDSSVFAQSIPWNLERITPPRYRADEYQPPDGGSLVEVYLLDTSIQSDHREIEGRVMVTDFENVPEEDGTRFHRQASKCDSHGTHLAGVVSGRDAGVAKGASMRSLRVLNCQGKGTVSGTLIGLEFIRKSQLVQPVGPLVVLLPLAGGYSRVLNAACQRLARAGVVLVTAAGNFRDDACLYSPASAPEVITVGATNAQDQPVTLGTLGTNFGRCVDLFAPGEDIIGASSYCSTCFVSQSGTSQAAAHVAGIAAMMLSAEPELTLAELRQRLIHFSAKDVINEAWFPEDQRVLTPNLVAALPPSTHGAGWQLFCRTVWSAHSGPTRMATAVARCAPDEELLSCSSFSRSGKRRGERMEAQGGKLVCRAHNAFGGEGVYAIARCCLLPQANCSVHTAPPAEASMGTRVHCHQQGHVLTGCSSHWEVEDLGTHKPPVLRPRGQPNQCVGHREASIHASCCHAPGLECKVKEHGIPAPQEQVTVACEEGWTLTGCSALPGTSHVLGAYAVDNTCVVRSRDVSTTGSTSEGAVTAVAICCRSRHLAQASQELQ
notes: Expressed in transfected HEK293 cells; also called PCSK[…]Y mutant
B1: binds.
